Data: article PMC7819943, “Rice protein-binding microarrays: a tool to detect cis-acting elements near promoter regions in rice”
This is one part of the list.

The sequences below were run against T1, OsWOX13 (Oryza sativa, UniProt Q5QMM3 1-267) (assay: protein-binding microarray (RPBM); PBS, 2% BSA, 51.3 ng/ul salmon testes DNA, 50 uM zinc acetate, 200 nM TF, 25 C, 1 h; high values mean tight binding). Conditions: protein: recombinant; tags: N-terminal polyhistidine and DsRed monomer fusion (pET32a); label: CyDye5-dUTP incorporated in the synthesized complementary strand; 3' TTTTT single-stranded linker to array surface; dsDNA, one strand shown.
T1 sequence: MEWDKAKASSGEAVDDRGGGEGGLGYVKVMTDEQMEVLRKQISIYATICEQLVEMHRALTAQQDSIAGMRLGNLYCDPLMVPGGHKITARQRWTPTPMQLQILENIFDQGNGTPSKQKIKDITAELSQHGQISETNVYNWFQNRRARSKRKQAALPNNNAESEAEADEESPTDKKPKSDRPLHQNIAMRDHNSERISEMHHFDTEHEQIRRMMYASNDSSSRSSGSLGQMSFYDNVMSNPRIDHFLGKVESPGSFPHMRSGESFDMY
Procedure, shortened: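 Transcription factors were made in E. coli BL21-CodonPlus as N-terminal fusions to a polyhistidine tag and DsRed, then purified on Ni–NTA. After primer extension with Cy5-dUTP and blocking with 2% BSA, a custom Agilent array was exposed for 1 h at 25 °C to 200 nM protein in PBS, 2% BSA, salmon testes DNA and 50 µM zinc acetate. Washed arrays were scanned on an Axon 4000B, and the binding signal is per-feature fluorescence intensity in arbitrary units.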

| Sequence | binding signal |
| --- | --- |
| CATGTGGTTGAAACTTGATTGAAATTTCCTCAGTACATTGCGGAGTCACCTAGTGCAG | 6550 fluorescence intensity (a.u.) |
| AATCAATTAGATAGAGGCCCTTAGCTTCCTCCTTGATTATCGGAGTCACCTAGTGCAG | 18400 fluorescence intensity (a.u.) |
| TACAATAAATTATGACAGATCTACCCCAGTCGGCCCGTAACGGAGTCACCTAGTGCAG | 13800 fluorescence intensity (a.u.) |
| TGCCTAAATTTATACTGATGGGGTGTATATATGGTGAAAACGGAGTCACCTAGTGCAG | 17500 fluorescence intensity (a.u.) |
| TATGATAATTTGATCAAAGTACATGTAGTTTTGTGAAATTCGGAGTCACCTAGTGCAG | 7780 fluorescence intensity (a.u.) |
| TCCCTCTATCAATCAAGAAACAAGCAAGATTATTCTAGCCCGGAGTCACCTAGTGCAG | 16700 fluorescence intensity (a.u.) |
| GTCTAATTAATCCATGATTAGTTTATGTAATGCTACATTACGGAGTCACCTAGTGCAG | 51700 fluorescence intensity (a.u.) |
| TCCAGTAATTATATTCCCTCCGTTTCAAAATATTTAACACCGGAGTCACCTAGTGCAG | 15100 fluorescence intensity (a.u.) |
| TTTGGATTGATTAATTCGTTGATAAGACTCGGATTCCGGACGGAGTCACCTAGTGCAG | 47000 fluorescence intensity (a.u.) |
| GGAAACCTAATTAACCCGGCCGCCGGTGGGTAGCTACTAGCGGAGTCACCTAGTGCAG | 3210 fluorescence intensity (a.u.) |
| GTGCCATTAATTTTGACTACTACTTGTGTGTCCTATCAAACGGAGTCACCTAGTGCAG | 7280 fluorescence intensity (a.u.) |
| TTTGAGTAAATTACATCTACAATACGTAAACTTGGGGTAGCGGAGTCACCTAGTGCAG | 6650 fluorescence intensity (a.u.) |
| ATAGTATTAACGTGATCTAATTTCATCCTACATTACTGTACGGAGTCACCTAGTGCAG | 3940 fluorescence intensity (a.u.) |
| AATCCTAAAATTACATACTAATTACATATGTAAGTGACGTCGGAGTCACCTAGTGCAG | 19400 fluorescence intensity (a.u.) |
| TTTTGATTTATAGCAAGACTCTTCCTGAGCATGTCAAGCACGGAGTCACCTAGTGCAG | 23300 fluorescence intensity (a.u.) |
| ACCTCTTAATGAGAATGTGACTCATCCTAATACAACCAACCGGAGTCACCTAGTGCAG | 3580 fluorescence intensity (a.u.) |
| ATTTCAGATTAATTTGGTTTGTGTTTACATTTAGTCGCGACGGAGTCACCTAGTGCAG | 16400 fluorescence intensity (a.u.) |
| CTCTAGATTAGGATGTGCACTTACCTTTAGTCTCCACCTTCGGAGTCACCTAGTGCAG | 5180 fluorescence intensity (a.u.) |
| TTCCTGGGAGATAATTAATTACTTACTCCTACTCCCTCGGCGGAGTCACCTAGTGCAG | 16300 fluorescence intensity (a.u.) |
| GTTGATTTTAGATTAGCTGGACCCTGGGCCATGAGGAGATCGGAGTCACCTAGTGCAG | 23700 fluorescence intensity (a.u.) |
| TTAATTAATCTCGTATTGGGTTCTTATACGGACTCTTCTTCGGAGTCACCTAGTGCAG | 4080 fluorescence intensity (a.u.) |
| TTCTCTGACAATATTGTTAAATGCCTGAAATTGGATCACTCGGAGTCACCTAGTGCAG | 3440 fluorescence intensity (a.u.) |
| TTAATATTTATAATTAATGTTCAAATATCTAATGTGATAGCGGAGTCACCTAGTGCAG | 6920 fluorescence intensity (a.u.) |
| CATGATTAGCCATAAATGCTACAGTAATCCACATTTGCTACGGAGTCACCTAGTGCAG | 47500 fluorescence intensity (a.u.) |
| GTGGTGATTGGTCCTGGCTACGTGTCCCGTTTCCGTCCCACGGAGTCACCTAGTGCAG | 50900 fluorescence intensity (a.u.) |
| GCATGTGATTTGTACTTGTTTATTAAGGCTTTGGACATGACGGAGTCACCTAGTGCAG | 20000 fluorescence intensity (a.u.) |
| CCTTAGATTGCTTGCTTAATACTCCCTCCGTATTTTAATACGGAGTCACCTAGTGCAG | 3650 fluorescence intensity (a.u.) |

| Sequence | binding signal |
| --- | --- |
| ACACAAATTAGCTTCCATGATAAACCCACAGGTACAAGAACGGAGTCACCTAGTGCAG | 9700 fluorescence intensity (a.u.) |
| GGTTGACCGATACGATTGAAACTCGACTCGCTTAGATAAACGGAGTCACCTAGTGCAG | 3700 fluorescence intensity (a.u.) |
| TTAAAACTGATTTAAACATCAACATTTTAAAGTTCAAGCACGGAGTCACCTAGTGCAG | 18900 fluorescence intensity (a.u.) |
| AAAATTGACTAGAGTGCTCTCACAAAATAAACTAGAGAGACGGAGTCACCTAGTGCAG | 7000 fluorescence intensity (a.u.) |
| TGAAAATATAAATTGCACACCGTCACGTTGATTTAGTACCCGGAGTCACCTAGTGCAG | 4000 fluorescence intensity (a.u.) |
| CCTTAATCTCAAATTAAGCTGATAAGTAAGTTTTGGAGCCCGGAGTCACCTAGTGCAG | 9740 fluorescence intensity (a.u.) |
| GCTAACATCAAATGACATGGAACAAAGGTCGGAGGAGTCACGGAGTCACCTAGTGCAG | 4460 fluorescence intensity (a.u.) |
| TTCCCTAATGATTAGCCTCTAAAAGACCTATATATTTAGCCGGAGTCACCTAGTGCAG | 27600 fluorescence intensity (a.u.) |
| GGAACTAAATTAAACTGTGTAACGCAAAATTGCGAAGTGGCGGAGTCACCTAGTGCAG | 24900 fluorescence intensity (a.u.) |
| ATGGTTGACTGGCTGGTTCCCTGTGTCTGTCTCACCTTTGCGGAGTCACCTAGTGCAG | 19000 fluorescence intensity (a.u.) |
| GAAGATTGAGCTGTTTATATGGCAATCTGTGGTTCAAGGCCGGAGTCACCTAGTGCAG | 16900 fluorescence intensity (a.u.) |
| GGTGATCAATGACTGAAACGATCGAGAAGGTTAGTCGTTGCGGAGTCACCTAGTGCAG | 7930 fluorescence intensity (a.u.) |
| TAGATAAATTAAACAACTAACCAAAATATGTTACGTCCGACGGAGTCACCTAGTGCAG | 6260 fluorescence intensity (a.u.) |
| TTTCTTAATCACGTCATTTATTCAATTTGACTTAGCCCGGCGGAGTCACCTAGTGCAG | 15600 fluorescence intensity (a.u.) |
| GGTTGACAGTAAATTCCCCAAATGGCTTTGACAGACAAATCGGAGTCACCTAGTGCAG | 19400 fluorescence intensity (a.u.) |
| GTAACAGGTAAACTGAAGATTACAGTGACGCATATTCACACGGAGTCACCTAGTGCAG | 4460 fluorescence intensity (a.u.) |
| TAGCTCCAAATCATTTATAGTCAATGTAATAGCCAATTCACGGAGTCACCTAGTGCAG | 4170 fluorescence intensity (a.u.) |
| ATAAACTACATTCTAACTAAAACAGTAATATTGATGGCCACGGAGTCACCTAGTGCAG | 3530 fluorescence intensity (a.u.) |
| GACGATTTAATCACAAGAATTTTGAGTATCTTGCACTCGTCGGAGTCACCTAGTGCAG | 3250 fluorescence intensity (a.u.) |
| TTGTGATTAGCCACATCAACCAAAAGCCTGTGTGTTTTGTCGGAGTCACCTAGTGCAG | 41900 fluorescence intensity (a.u.) |
| GGTAAATATAATAAATTATTGATCTAACAACTTGAAATTACGGAGTCACCTAGTGCAG | 3460 fluorescence intensity (a.u.) |
| CTTAAGTGATTGCAAACACAGTCCTTCACATTACAACTTGCGGAGTCACCTAGTGCAG | 47000 fluorescence intensity (a.u.) |
| CGCTTTGCTAATTGCTAGCACAACTCGAATGTGCTGGATCCGGAGTCACCTAGTGCAG | 10400 fluorescence intensity (a.u.) |
| TAAACATCTGATTAGCTAAAAGTGTTTAATTAGATTTCCACGGAGTCACCTAGTGCAG | 21800 fluorescence intensity (a.u.) |
| ACACCAATTATGTTCAGAAGAATAAGACTCCATTTGAAGACGGAGTCACCTAGTGCAG | 3670 fluorescence intensity (a.u.) |
| GAGCAAATAAGTTTATTGATAGAAATAAATTTACCCTATACGGAGTCACCTAGTGCAG | 3900 fluorescence intensity (a.u.) |
| CCAATTTTACTAAATTAAAACTATGCCACTGACGTCACCTCGGAGTCACCTAGTGCAG | 4770 fluorescence intensity (a.u.) |
